The supplement of paper PMC11417369
± gives the standard deviation of the averaged measurements. The list shows a part of the results.

Each sequence was assayed on PfAP2-LT AP2 domain (GST-tagged) (assay: gcPBM binding intensity (ln(normalized median fluorescence intensity)); higher = stronger DNA binding).
In short: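 For binding intensity, the highest Masliner-normalised natural-log median intensity across replicate spots of either probe orientation was taken. Protein bound to the array was stained with Alexa488 anti-GST antibody and scanned at 488 nm. The protein, GST-tagged P. falciparum DNA-binding domains from E. coli at about 25 μg on average, had been applied for 1 h to an Agilent 4 × 180k array of primer-extended double-stranded 36-bp intergenic genomic probes and negative controls.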
For “AATACCGGAAAGCAAACACACATTTGAAAACCATAA [CACACA_site7761]”, the “gcPBM binding intensity (ln)” value was 9.32 ± 0.53.
For “TATATATTATATATATGTACATATTTATTTTATTTT [XGTACX_site6989]”, the “gcPBM binding intensity (ln)” value was 8.75 ± 0.37.
In the case of “AAAAAATTTCAAATGACATAATGTAATTTCCCTTTT [GTGCAC_negctrl_site673]”, the “gcPBM binding intensity (ln)” value is reported as 8.45 ± 0.45.
In the case of “AACGGGGGTAGTTTTATGCACACGTTTATTAATGCT [CACACA_site3173]”, the “gcPBM binding intensity (ln)” value is reported as 9.25 ± 0.34.
“GATATGAATATAGGTTGTACTATATATAAAGTATGT [XGTACX_site1877]” was tested, and the “gcPBM binding intensity (ln)” value was 8.88 ± 0.43.
With “AAAGTACAAGTATAATCACACGTGTCTATTATATAC [CACACA_site4507]” the “gcPBM binding intensity (ln)” value was 9.37 ± 0.45.
In the case of “TATATGTTAATTTTTTTTTTTTTTTTTTTTTTTATA [CACACA_negctrl_site62]”, the “gcPBM binding intensity (ln)” value is reported as 8.28 ± 0.66.
In the case of “ACATGAATTTATATGTGTACTAACTATATTCTTAAA [XGTACX_site5966]”, the “gcPBM binding intensity (ln)” value is reported as 8.72 ± 0.38.
In the case of “ATGAATAAATAGGTCACACACAAATATTTATAAATA [CACACA_site7186]”, the “gcPBM binding intensity (ln)” value is reported as 9.29 ± 0.39.
With “TATCTGTATTTATTCACACATATAAAATATAATTAA [CACACA_site5560]” the “gcPBM binding intensity (ln)” value was 8.31 ± 0.39.
With “TATATACAATATAGGTGTACATTTTTTTATCTATTT [XGTACX_site8431]” the “gcPBM binding intensity (ln)” value was 8.79 ± 0.42.
“TCTGGCATATAATATTGTACACATATATATATATAT [XGTACX_site8182]” was tested, and the “gcPBM binding intensity (ln)” value was 9.45 ± 0.21.
“ATATTTATGTAAAAAAGTACATACAATTATATATGT [XGTACX_site3750]” was tested, and the “gcPBM binding intensity (ln)” value was 8.78 ± 0.46.
With “GATTACAAAAAAAATACACACAAAAAAAAAAAGGAA [CACACA_site2096]” the “gcPBM binding intensity (ln)” value was 9.19 ± 0.59.
For “ATAATGTTTTATAATACACACATTATATATATAAAT [CACACA_site6101]”, the “gcPBM binding intensity (ln)” value was 8.87 ± 0.32.
“CTTTCAATTTTTTTCTGTACCAATAAAAAATATAAA [XGTACX_site2120]” was tested, and the “gcPBM binding intensity (ln)” value was 8.11 ± 0.36.
For “TTGAGCATAAAATTTGGAAACCTCAATCGGACAAAA [GTGCAC_negctrl_site84]”, the “gcPBM binding intensity (ln)” value was 8.68 ± 0.45.
With AACTGAGAAACCGAAGTGCAATATGTATATATACAT the “gcPBM binding intensity (ln)” value was 9.1 ± 0.41.
In the case of “ATATGAAAGGTGTACACACGCACACCCAAAAAAATA [CACACA_site2911]”, the “gcPBM binding intensity (ln)” value is reported as 9.35 ± 0.36.
With “TAATTTAAAAATATAAATGTTTCACTTATATATTTT [TGCATGCA_negctrl_site399]” the “gcPBM binding intensity (ln)” value was 8.39 ± 0.49.
For “ATATATAATATATATGCATGTGACATTAATAATATA [TGCATGCA_site880]”, the “gcPBM binding intensity (ln)” value was 8.81 ± 0.4.
With “CCACACTTAAAATACACACACACCAAAAAAAAAAAA [CACACA_site2709]” the “gcPBM binding intensity (ln)” value was 9.76 ± 0.47.
“TTTTTTACGCATAACTTAATATGAGAATCCCTTTCT [GTGCAC_negctrl_site522]” was tested, and the “gcPBM binding intensity (ln)” value was 8.53 ± 0.58.
With “ATTTATTGACTATTTACACACATATTTATTAGAATA [CACACA_site6863]” the “gcPBM binding intensity (ln)” value was 8.97 ± 0.32.
With “GGGAGGATAGTTCACAGTACCCAGTAACTCTACGGA [XGTACX_site2558]” the “gcPBM binding intensity (ln)” value was 8.86 ± 0.41.
In the case of “ATGATACATAAAGAATATAAAACATGAAATATAATA [CACACA_negctrl_site1461]”, the “gcPBM binding intensity (ln)” value is reported as 8.88 ± 0.48.
For “GCCACACTTTTCTGCACACATAAAAAATATATAAAT [CACACA_site578]”, the “gcPBM binding intensity (ln)” value was 9.09 ± 0.45.
With “TATATCGTTATATAAACACACAATATGTTTTTTATA [CACACA_site7730]” the “gcPBM binding intensity (ln)” value was 8.69 ± 0.4.
“CTTTTATGAAACAGTGCACACATAAAAATATATACA [CACACA_site8981]” was tested, and the “gcPBM binding intensity (ln)” value was 9.06 ± 0.33.
In the case of “CATAAGAGGAACTTTTGTACTTATATGTATATAGTA [XGTACX_site5836]”, the “gcPBM binding intensity (ln)” value is reported as 8.5 ± 0.33.
For “AAAAAAAAAAAAAAAACACACATTTGAAAGAAAGAA [CACACA_site3339]”, the “gcPBM binding intensity (ln)” value was 8.69 ± 0.59.
With “TACACCCATGGACACACACACACGCATAAAAAAAAA [CACACA_site4933]” the “gcPBM binding intensity (ln)” value was 9.85 ± 0.58.
For “ATTTTTATTTTCTTTACACACCACATAATTTTTTTT [CACACA_site6092]”, the “gcPBM binding intensity (ln)” value was 9.03 ± 0.58.
“ATGAACATTTATAAATGTACTCACATATATATATTT [XGTACX_site6692]” was tested, and the “gcPBM binding intensity (ln)” value was 8.74 ± 0.39.
In the case of “TTTATATTTATCCAAAGTACTTTTTAAAAACATACC [XGTACX_site4518]”, the “gcPBM binding intensity (ln)” value is reported as 8.46 ± 0.42.
“TTTTTGTTTTTTTTTTGTACATATATATAAAAAATA [XGTACX_site1214]” was tested, and the “gcPBM binding intensity (ln)” value was 8.44 ± 0.5.
With “TTTTTTTTAATATTTTACATTGTCTGTTAACAAATA [CACACA_negctrl_site599]” the “gcPBM binding intensity (ln)” value was 8.44 ± 0.45.
In the case of “AACATTTTTAGATTATATTATTAAATAAGTAACTGC [XGTACX_negctrl_site326]”, the “gcPBM binding intensity (ln)” value is reported as 8.46 ± 0.38.
With “AGATATATATTTTATTGTACACATTAAAGTATAAAA [XGTACX_site7194]” the “gcPBM binding intensity (ln)” value was 8.52 ± 0.4.
“AACACTTTAATTTATGCACACATATGGAACAACAGC [CACACA_site8241]” was tested, and the “gcPBM binding intensity (ln)” value was 9.2 ± 0.42.
In the case of “AAGTTTTTTATTTTTTGTACATAAAAAATAATAATT [XGTACX_site1755]”, the “gcPBM binding intensity (ln)” value is reported as 8.34 ± 0.37.
“TATGTATTTATATATACACACTTCTGTGATACGAAA [CACACA_site5128]” was tested, and the “gcPBM binding intensity (ln)” value was 8.76 ± 0.38.
In the case of “TTTTTCATTTAACAGAAGGGAGATAAAAAAAAAAAA [TGCATGCA_negctrl_site261]”, the “gcPBM binding intensity (ln)” value is reported as 8.12 ± 0.47.
In the case of “ATATTATTTTAAAGTACACACATATATTGATATATA [CACACA_site7153]”, the “gcPBM binding intensity (ln)” value is reported as 8.85 ± 0.37.
